Reference: the supplement of paper PMC4967469
A lower IC50 marks a more sensitive line; fits outside the tested doses are given as limits. AUC is the area under the same curve over the 256-fold range up to the top dose, as a fraction; it is 1 without any effect and falls as sensitivity rises. For some assays here: A top dose marked as inferred comes from the curve model; the source does not state it. For some assays here: Where an entry number is given, a second screen of the drug exists; the two often differ.

Key:
Assay in all cases: Viability of human cancer cell lines after 72 h of drug (GDSC screen)
[1] = compound: CCc1nc(N)nc(N)c1-c1ccc(Cl)cc1 [Pyrimethamine]; details: top dose 20 µM; top dose inferred
Procedure: (§1)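 Human cancer cell lines in 384-well plates, medium with 10% serum, drug for 72 h over a 256-fold dose range (nine 2-fold or five 4-fold steps up to the top dose). Adherent lines were fixed and stained with the nucleic acid dye Syto60, suspension lines read with resazurin; signal relative to control wells, capped at 0 and 100%. One two-parameter sigmoid per drug and line, fitted in a mixed model over all curves with the slope shared within a line.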

[2] = compound: NC(=O)Nc1sc(-c2ccc(F)cc2)cc1C(N)=O [TPCA-1]; details: top dose 20 µM
Procedure: as §1

[3] = compound: CN1CCN(CCOc2cc(OC3CCOCC3)c3c(Nc4c(Cl)ccc5c4OCO5)ncnc3c2)CC1 [AZD-0530]; details: top dose 2 µM
Procedure: as §1

[4] = compound: Cc1ccc(NC(=O)c2ccc(CN3CCN(C)CC3)cc2)cc1Nc1nccc(-c2cccnc2)n1 [Imatinib]; details: top dose 2 µM
Procedure: as §1

[5] = compound: C/C(=C\c1csc(C)n1)[C@@H]1C[C@@H]2O[C@]2(C)CCC[C@H](C)[C@H](O)[C@@H](C)C(=O)C(C)(C)[C@@H](O)CC(=O)O1 [Epothilone B]; details: top dose 0.032 µM; top dose inferred
Procedure: as §1

[6] = compound: C[C@@H](N)c1ccc(C(=O)Nc2ccnc3[nH]ccc23)cc1 [Y-39983]; details: top dose 20 µM; top dose inferred
Procedure: as §1

[7] = compound: CCCS(=O)(=O)Nc1ccc(F)c(C(=O)c2c[nH]c3ncc(Cl)cc23)c1F [PLX4720]; details: top dose 10 µM
Procedure: as §1

[8] = compound: CC(C)CC(=O)Nc1n[nH]c2c1CN(C(=O)C1CCN(C)CC1)C2(C)C [PHA-793887]; details: top dose 10.24 µM
Procedure: as §1

[9] = screen: GDSC drug entry 1371, top dose inferred

Row | Cell Line | AUC [1] | IC50 [1] [µM] | AUC [2] | IC50 [2] [µM] | AUC [3] | IC50 [3] [µM] | AUC [4] | IC50 [4] [µM] | AUC [5] | IC50 [5] [µM] | AUC [6] | IC50 [6] [µM] | AUC ([7]; screen: GDSC drug entry 1036) | IC50 ([7]; screen: GDSC drug entry 1036) [µM] | AUC [8] | IC50 [8] [µM] | AUC [7, 9] | IC50 [7, 9] [µM]
1 | MHH-NB-11 (neuroblastoma, adherent) | 0.838 | 15.6 | 0.642 | 3.23 | 0.983 | > 2 | 0.98 | > 2 | 0.828 | 0.0225 | 0.771 | 8.4 | 0.985 | > 10 | 0.846 | 8.65 | – | –
2 | MPP-89 (mesothelioma, adherent) | 0.975 | > 20 | 0.929 | > 20 | 0.921 | > 2 | 0.924 | > 2 | 0.685 | 0.00775 | 0.977 | > 20 | 0.972 | > 10 | 0.981 | > 10.2 | 0.966 | > 10
3 | MRK-nu-1 (breast, suspension) | 0.978 | > 20 | 0.923 | > 20 | 0.97 | > 2 | 0.97 | > 2 | 0.377 | 0.000945 | 0.946 | > 20 | 0.99 | > 10 | 0.929 | > 10.2 | 0.989 | > 10
4 | MS-1 (small cell lung carcinoma, suspension) | 0.983 | > 20 | 0.874 | 16 | 0.99 | > 2 | 0.99 | > 2 | 0.746 | 0.00922 | 0.988 | > 20 | 0.973 | > 10 | 0.755 | 3.14 | 0.99 | > 10
5 | MY-M12 (leukaemia, suspension) | 0.777 | 9.13 | 0.713 | 5.47 | 0.649 | 0.342 | 0.485 | 0.113 | 0.698 | 0.00782 | 0.828 | 14.6 | 0.944 | > 10 | 0.616 | 1.4 | – | –
6 | MZ2-MEL (melanoma, adherent) | 0.978 | > 20 | 0.773 | 9.19 | 0.979 | > 2 | 0.98 | > 2 | 0.542 | 0.00265 | 0.973 | > 20 | 0.735 | 3.34 | 0.663 | 1.97 | 0.599 | 1.23
7 | NAMALWA (Burkitt lymphoma, suspension) | 0.847 | 11.3 | 0.408 | 0.73 | 0.941 | > 2 | 0.99 | > 2 | 0.694 | 0.00631 | 0.817 | 8.97 | 0.974 | > 10 | 0.371 | 0.301 | 0.987 | > 10
8 | NB1 (neuroblastoma, semi-adherent) | 0.864 | > 20 | 0.887 | > 20 | 0.887 | > 2 | 0.984 | > 2 | 0.776 | 0.0141 | 0.883 | > 20 | 0.982 | > 10 | 0.945 | > 10.2 | 0.982 | > 10
9 | NB14 (neuroblastoma, adherent) | 0.913 | > 20 | 0.642 | 3 | 0.978 | > 2 | 0.984 | > 2 | 0.676 | 0.00601 | 0.769 | 7.14 | 0.985 | > 10 | 0.959 | > 10.2 | 0.982 | > 10
10 | NCI-H187 (small cell lung carcinoma, suspension) | 0.939 | > 20 | 0.912 | > 20 | 0.987 | > 2 | 0.984 | > 2 | 0.986 | > 0.032 | 0.977 | > 20 | 0.974 | > 10 | 0.749 | 3.57 | 0.986 | > 10
11 | NCI-H209 (small cell lung carcinoma, suspension) | 0.751 | 6.98 | 0.623 | 2.8 | 0.978 | > 2 | 0.984 | > 2 | 0.821 | 0.0202 | 0.896 | > 20 | 0.797 | 5.11 | 0.711 | 2.65 | 0.85 | 8.42
12 | NCI-H446 (small cell lung carcinoma, semi-adherent) | 0.945 | > 20 | 0.772 | 8.29 | 0.969 | > 2 | 0.984 | > 2 | 0.849 | 0.0268 | 0.887 | > 20 | 0.976 | > 10 | 0.634 | 1.54 | 0.857 | 9.15
13 | NCI-H1436 (small cell lung carcinoma, suspension) | 0.984 | > 20 | 0.774 | 8.96 | 0.786 | 0.995 | 0.813 | 1.27 | 0.746 | 0.0114 | 0.947 | > 20 | 0.965 | > 10 | 0.9 | > 10.2 | 0.973 | > 10
14 | NCI-H1694 (small cell lung carcinoma, suspension) | 0.986 | > 20 | 0.938 | > 20 | 0.959 | > 2 | 0.971 | > 2 | 0.884 | > 0.032 | 0.971 | > 20 | 0.986 | > 10 | 0.905 | > 10.2 | 0.988 | > 10
15 | NCI-H2081 (small cell lung carcinoma, suspension) | 0.985 | > 20 | 0.908 | > 20 | 0.989 | > 2 | 0.984 | > 2 | 0.852 | 0.027 | 0.986 | > 20 | 0.987 | > 10 | 0.928 | > 10.2 | 0.988 | > 10
